# Data taken from the supplement of paper PMC7238544.
# Where a name gives a salt, the structure may show the parent alone. ± gives the standard deviation of the averaged measurements. Some of the results follow.
# What was measured:
# Conditions in all cases: priming compound concentration 100 µM
# [1] = system: hAMSC donor 1; assay: Hoechst total cell count ratio vs vehicle control; higher = more cells (less toxicity)
# [2] = system: hAMSC donor 2; assay: as above
# [3] = system: hAMSC donor 1; assay: transgenic luciferase activity (RLU/mg protein) fold change vs vehicle control (ratio); higher = more transgene expression
# [4] = system: hAMSC donor 2; assay: as above
# [5] = system: hAMSC donor 1; assay: transfection efficiency (EGFP+ cells / Hoechst count) fold change vs vehicle control (ratio); hAMSC are human adipose-derived mesenchymal stem cells given an EGFP-luciferase plasmid by lipofection; higher = enhanced transfection
# [6] = system: hAMSC donor 2; assay: as above
# 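Wherever Hoechst total cell count ratio vs vehicle control is given: compound added 30 min before Lipofectamine 3000 lipoplex delivery, triplicate-well means expressed against DMSO vehicle control wells of the same 96-well plate.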
# 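Wherever transfection efficiency (EGFP+ cells / Hoechst count) fold change vs vehicle control is given: compounds added 30 min before Lipofectamine 3000 lipoplex transfection, triplicate means relative to DMSO vehicle wells on the same plate, luciferase RLU normalized to BCA total protein.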
# 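Wherever transgenic luciferase activity (RLU/mg protein) fold change vs vehicle control is given: compounds in DMSO added 30 min before Lipofectamine 3000 transfection of pEGFP-Luc in 96-well plates, values are means of triplicate wells over DMSO vehicle wells on the same plate.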
Structure (SMILES),Hoechst total cell count ratio [1],Hoechst total cell count ratio [2],transgenic luciferase activity [3],transgenic luciferase activity [4],transfection efficiency [5],transfection efficiency [6]
OC(Cn1cncn1)(Cn1cncn1)c1ccc(F)cc1F [Fluconazole],0.865 ± 0.013,1.02 ± 0.19,1.24 ± 0.77,0.594 ± 0.027,1.02 ± 0.23,0.784 ± 0.21
Cc1ncc([N+](=O)[O-])n1CC(O)CCl (configuration not stated) [Ornidazole],1.29 ± 0.12,1.03 ± 0.25,1.17 ± 0.037,0.985 ± 0.71,0.974 ± 0.29,0.886 ± 0.12
Cc1onc(-c2ccccc2)c1C(=O)N[C@@H]1C(=O)N2[C@@H]1SC(C)(C)[C@@H]2C(=O)O [Oxacillin sodium],0.962 ± 0.083,1.38 ± 0.14,1.82 ± 1.1,1.24 ± 0.28,1.27 ± 0.32,0.987 ± 0.12
CCCCc1oc2ccccc2c1C(=O)c1cc(I)c(OCCN(CC)CC)c(I)c1 [Amiodarone hydrochloride],0.922 ± 0.067,1.15 ± 0.25,1.75 ± 1.4,0.404 ± 0.084,0.484 ± 0.082,0.344 ± 0.1
CO[C@@H]1[C@@H](O[C@@H]2O[C@H](C)[C@@H](O[C@H]3C[C@@](C)(O)[C@@H](OC(=O)CC(C)C)[C@H](C)O3)[C@H](N(C)C)[C@H]2O)[C@@H](CC=O)C[C@@H](C)[C@@H](O)/C=C/C=C/C[C@@H](C)OC(=O)C[C@H]1O [Kitasamycin],1.57 ± 0.13,1.4 ± 0.18,0.985 ± 0.42,0.446 ± 0.24,0.534 ± 0.31,0.753 ± 0.087
COC(=O)CCc1ccc(OCC(O)CNC(C)C)cc1 (configuration not stated) [Esmolol hydrochloride],0.91 ± 0.065,1.04 ± 0.077,3.11 ± 1.8,0.737 ± 0.28,1.72 ± 0.03,1.27 ± 0.062
OC(CCN1CCCC1)(c1ccccc1)C1CCCCC1 (configuration not stated) [Procyclidine hydrochloride],1.41 ± 0.13,1.18 ± 0.11,0.986 ± 0.29,0.642 ± 0.08,0.806 ± 0.21,0.707 ± 0.1
CC(=O)/N=c1/sc(S(N)(=O)=O)nn1C [Methazolamide],1.29 ± 0.14,0.756 ± 0.12,0.9 ± 0.2,0.616 ± 0.39,0.899 ± 0.29,1.13 ± 0.041
CC(C)(S)C(N)C(=O)O (racemic) [DL-Penicillamine],1.3 ± 0.061,1.52 ± 0.082,0.627 ± 0.35,0.707 ± 0.088,0.828 ± 0.42,0.855 ± 0.039
O=C(O)c1cc(-c2ccc(F)cc2F)ccc1O [Diflunisal],1.11 ± 0.14,1.11 ± 0.14,1.04 ± 0.17,0.915 ± 0.064,0.835 ± 0.11,1.27 ± 0.22
CC(C)OC(=O)CCC/C=C\C[C@@H]1[C@@H](CC[C@@H](O)CCc2ccccc2)[C@H](O)C[C@@H]1O [Latanoprost],1.75 ± 0.13,1.49 ± 0.056,0.271 ± 0.054,0.885 ± 0.38,0.189 ± 0.21,0.365 ± 0.046
NC(=O)c1cccnc1 [Nicotinamide],1.11 ± 0.12,1.31 ± 0.15,0.464 ± 0.3,0.845 ± 0.13,1.19 ± 0.089,0.9 ± 0.094
O=c1cnn([C@@H]2O[C@H](CO)[C@@H](O)[C@H]2O)c(=O)[nH]1 [6-Azauridine],1.05 ± 0.032,1.13 ± 0.13,3.17 ± 1.8,1.62 ± 0.088,2.76 ± 0.37,2.45 ± 0.58
O=c1[nH]cc(F)c(=O)[nH]1 [5-Fluorouracil],0.982 ± 0.086,0.627 ± 0.056,1.12 ± 0.63,1.13 ± 0.14,0.703 ± 0.14,1.55 ± 0.42
CC[C@H]1OC(=O)[C@H](C)[C@@H](O[C@H]2C[C@@](C)(OC)[C@@H](O)[C@H](C)O2)[C@H](C)[C@@H](O[C@@H]2O[C@H](C)C[C@H](N(C)C)[C@H]2O)[C@](C)(O)C[C@@H](C)CN(C)[C@H](C)[C@@H](O)[C@]1(C)O [Azithromycin],1.04 ± 0.017,1.94 ± 0.16,0.506 ± 0.11,0.226 ± 0.022,0.621 ± 0.14,0.601 ± 0.21
CN(C)CCC[C@@]1(c2ccc(F)cc2)OCc2cc(C#N)ccc21 [Escitalopram oxalate],1.08 ± 0.053,0.833 ± 0.072,0.711 ± 0.2,0.451 ± 0.083,1.46 ± 0.42,1.1 ± 0.15
C/C(=C\C(=O)OCCCCCCCCC(=O)O)C[C@@H]1OC[C@H](C[C@@H]2O[C@H]2[C@@H](C)[C@H](C)O)[C@@H](O)[C@H]1O [Mupirocin],1.09 ± 0.065,1.07 ± 0.31,2.11 ± 0.84,1.41 ± 0.73,1.33 ± 0.48,1.14 ± 0.045
Nc1nc(=O)c2nc(CNc3ccc(C(=O)N[C@@H](CCC(=O)O)C(=O)O)cc3)cnc2[nH]1 [Folic acid],0.89 ± 0.21,1.09 ± 0.042,1.66 ± 0.81,0.892 ± 0.12,1.29 ± 0.48,1 ± 0.069
Cc1ncc([N+](=O)[O-])n1CCO [Metronidazole],0.848 ± 0.061,0.933 ± 0.033,1.03 ± 0.66,1.18 ± 0.14,0.984 ± 0.35,1.34 ± 0.089
Cc1cccc(Nc2ccncc2S(=O)(=O)NC(=O)NC(C)C)c1 [Torasemide],1.16 ± 0.029,1.13 ± 0.29,1.71 ± 1,1.39 ± 0.65,1.64 ± 0.42,1.74 ± 0.28
CC(C)[N+]1(C)[C@@H]2CC[C@H]1C[C@@H](OC(=O)C(CO)c1ccccc1)C2 (some centres not stated) [Ipratropium bromide],0.883 ± 0.24,0.942 ± 0.34,1.31 ± 0.47,0.812 ± 0.36,2.43 ± 0.25,1.13 ± 0.2
CCCCCNC(=N)N/N=C/c1c[nH]c2ccc(OC)cc12 [Tegaserod maleate],0.351 ± 0.18,0.134 ± 0.064,0.00156 ± 0.0011,0.000331 ± 6.6e-05,0.47 ± 0.19,0.273 ± 0.21
O=C1N(c2ccccc2)c2ccccc2C1(Cc1ccncc1)Cc1ccncc1 [Linopirdine dihydrochloride],1.05 ± 0.24,0.907 ± 0.053,0.58 ± 0.048,0.648 ± 0.092,0.958 ± 0.23,1.17 ± 0.082
CCCc1nc(C)c2c(=O)nc(-c3cc(S(=O)(=O)N4CCN(CC)CC4)ccc3OCC)[nH]n12 [Vardenafil citrate],1.59 ± 0.12,1.21 ± 0.11,0.807 ± 0.7,0.611 ± 0.22,0.976 ± 0.043,0.596 ± 0.11

Structure (SMILES),Hoechst total cell count ratio [1],Hoechst total cell count ratio [2],transgenic luciferase activity [3],transgenic luciferase activity [4],transfection efficiency [5],transfection efficiency [6]
COc1ccc(-c2cc(=O)c3c(OC)c(OC)c(OC)c(OC)c3o2)cc1OC [Nobiletin],1.29 ± 0.016,2.588 ± 0.016,1.06 ± 0.25,0.856 ± 0.25,0.85 ± 0.17,0.742 ± 0.14
NC(N)=Nc1nc(CSCC/C(N)=N/S(N)(=O)=O)cs1 [Famotidine],0.905 ± 0.095,1.09 ± 0.051,0.625 ± 0.24,1.04 ± 0.16,1.77 ± 0.87,1.84 ± 0.17
COc1ccccc1N1CCN(CCCNc2cc(=O)n(C)c(=O)n2C)CC1 [Urapidil hydrochloride],1.19 ± 0.22,1.13 ± 0.014,0.234 ± 0.033,0.93 ± 0.23,1.06 ± 0.52,1.07 ± 0.14
CCOC(=O)[C@H](CCc1ccccc1)N[C@H]1CCc2ccccc2N(CC(=O)O)C1=O [Benazepril hydrochloride],1.4 ± 0.12,1.05 ± 0.17,0.529 ± 0.29,0.661 ± 0.037,0.971 ± 0.16,0.917 ± 0.097
COc1ccccc1OCCNCC(O)COc1cccc2[nH]c3ccccc3c12 (configuration not stated) [Carvedilol],0.688 ± 0.025,0.284 ± 0.022,13.5 ± 2.2,4.18 ± 0.82,2.46 ± 0.4,2.78 ± 0.53
CC(C)C[C@H](NC(=O)[C@@H](O)[C@H](N)Cc1ccccc1)C(=O)O [Bestatin],0.992 ± 0.027,0.926 ± 0.15,1.2 ± 0.82,1.22 ± 0.75,1.06 ± 0.37,1.35 ± 0.074
CC(C)(C)C(O)/C=C/c1ccc2c(c1)OCO2 (configuration not stated) [Stiripentol],1.05 ± 0.13,1.62 ± 0.15,1.25 ± 0.23,1.02 ± 0.27,1.11 ± 0.26,0.882 ± 0.14
CCN1CCC[C@H]1CNC(=O)c1c(O)c(Cl)cc(Cl)c1OC [Raclopride],1.32 ± 0.051,0.9893 ± 0.0093,0.857 ± 0.71,0.673 ± 0.26,0.765 ± 0.11,0.879 ± 0.14
CC(=O)OCC(=O)[C@@]1(O)CC[C@H]2[C@@H]3C[C@H](C)C4=CC(=O)C=C[C@]4(C)[C@H]3[C@@H](O)C[C@@]21C [Methylprednisolone acetate],1.16 ± 0.22,1.48 ± 0.47,4.8 ± 1.2,2.29 ± 0.51,1.7 ± 0.19,1.27 ± 0.12
CC1(C)O[C@@H]2[C@@H](CO[C@@]3(COS(N)(=O)=O)OC(C)(C)O[C@@H]23)O1 [Topiramate],1.31 ± 0.18,1.33 ± 0.16,1.63 ± 0.8,1.04 ± 0.2,0.936 ± 0.2,1.01 ± 0.016
COc1cc(NC(C)CCCN)c2ncccc2c1 (configuration not stated) [Primaquine diphosphate],0.134 ± 0.1,0.193 ± 0.019,0.00687 ± 0.0013,0.000954 ± 0.00068,0.729 ± 0.25,1.05 ± 0.65
O=C1CN2Cc3c(ccc(Cl)c3Cl)N=C2N1 [Anagrelide hydrochloride],2.05 ± 0.15,0.916 ± 0.07,1.26 ± 0.53,0.903 ± 0.11,1.49 ± 0.83,2.83 ± 0.62
O=C(O[C@@H]1Cc2c(O)cc(O)cc2O[C@@H]1c1cc(O)c(O)c(O)c1)c1cc(O)c(O)c(O)c1 [Epigallocatechin gallate],1.95 ± 0.086,1.37 ± 0.051,0.0175 ± 0.011,0.0395 ± 0.0039,0.121 ± 0.062,0.0238 ± 0.014
CCN(CC)C(=S)SSC(=S)N(CC)CC [Disulfiram],0.0973 ± 0.013,0.106 ± 0.047,0.0129 ± 0.0049,0.000424 ± 0.00012,1.62 ± 0.83,0.209 ± 0.049
COc1ccc(CN2CCN(C(c3ccc(F)cc3)c3ccc(F)cc3)CC2)c(OC)c1OC [Lomerizine dihydrochloride],0.491 ± 0.064,1 ± 0.051,0.23 ± 0.2,0.06 ± 0.015,0.486 ± 0.098,0.127 ± 0.035
Nc1ccc(S(=O)(=O)c2ccc(N)cc2)cc1 [Dapsone],1.08 ± 0.058,0.98 ± 0.16,8.68 ± 1.3,2.88 ± 0.18,2.83 ± 0.19,2.01 ± 0.4
NC1CCN(c2nc3c(cc2F)c(=O)c(C(=O)O)cn3-c2ccc(F)cc2F)C1 (configuration not stated) [Tosufloxacin tosilate],3.06 ± 0.42,1.18 ± 0.02,0.829 ± 0.61,0.809 ± 0.13,0.826 ± 0.1,1.31 ± 0.076
O=C(O)CCc1nc(-c2ccccc2)c(-c2ccccc2)o1 [Oxaprozin],1.21 ± 0.046,1.13 ± 0.07,1.65 ± 0.34,1.02 ± 0.53,1.18 ± 0.17,0.778 ± 0.22
N[C@@H](C(=O)N[C@@H]1C(=O)N2C(C(=O)O)=C(CSc3cn[nH]n3)CS[C@H]12)c1ccc(O)cc1 [Cefatrizine propylene glycol],1.33 ± 0.16,1.17 ± 0.072,0.822 ± 0.36,0.662 ± 0.14,1.37 ± 0.26,0.739 ± 0.12
CC1(C)C[C@@H]1C(=O)N/C(=C\CCCCSC[C@H](N)C(=O)O)C(=O)O [Cilastatin sodium],0.974 ± 0.091,0.983 ± 0.096,1.55 ± 0.33,1.29 ± 0.19,1.37 ± 0.2,1.03 ± 0.18
C=C(CC)C(=O)c1ccc(OCC(=O)O)c(Cl)c1Cl [Ethacrynic acid],0.785 ± 0.16,0.51 ± 0.16,1.21 ± 0.56,0.884 ± 0.19,1.9 ± 0.22,1.16 ± 0.26
CSc1ccc2c(c1)N(CCC1CCCCN1C)c1ccccc1S2 (configuration not stated) [Thioridazine hydrochloride],0.0697 ± 0.052,0.238 ± 0.085,0.0118 ± 0.0035,0.000333 ± 0.00021,2.47 ± 1.4,0.0842 ± 0.076
CCOC(=O)[C@H](CCc1ccccc1)N[C@@H](C)C(=O)N1CCC[C@H]1C(=O)O [Enalapril maleate],1.07 ± 0.077,1.42 ± 0.07,0.384 ± 0.025,0.66 ± 0.037,0.75 ± 0.069,0.897 ± 0.056
